Results: PubChem BioAssay AID485281 (National Center for Advancing Translational Sciences (NCATS), 2010)
Hit rate of the full screen: of about 350,000 compounds, about 260 (0.074%) were called active. The inconclusive results got no clear call from the source; some entries with a clear call stand among them for comparison. The call rests on the fitted dose curve; in most records, active means well fitted inhibition curve with a large enough effect; inconclusive means small, poorly fitted or top-dose-only effect; inactive means no such curve, though single readings can be large or run the other way. Where the call is inconclusive, the potency comes from a doubtful curve fit.

biological target: Ferritin light chain (Equus caballus) (UniProt P02791); assay: qHTS Assay for Identification of Novel General Anesthetics; details: apoferritin/1-aminoanthracene competitive binding, fluorescence; activity change, negative = displacement: at 77.5 µM (top of the series); further: nearly all actives have a fitted effect of over 20% in size
Procedure, shortened: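 Apoferritin-based anesthetic binding model; compound displacement of fluorescent 1-AMA measured as endpoint fluorescence after 10 minutes at room temperature, scaled to free-ligand and complex controls.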
On the % scale 0 is the no-effect control and ±100 the full control effect; potency means the concentration at half of the fitted maximal effect; tags describe the fitted curve by direction and shape.

Sequence of UniProt P02791 (P02791 whole entry, looked up): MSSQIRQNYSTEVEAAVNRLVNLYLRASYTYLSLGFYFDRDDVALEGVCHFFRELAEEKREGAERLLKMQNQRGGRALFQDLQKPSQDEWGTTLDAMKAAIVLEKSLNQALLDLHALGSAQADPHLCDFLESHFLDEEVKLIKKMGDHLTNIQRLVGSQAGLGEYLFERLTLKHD

Potency, inconclusive:
C[n+]1c2n(c3ccccc31)N=C(c1cc(C(C)(C)C)c(O)c(C(C)(C)C)c1)CS2 8.91 µM [inhibitor, partial curve]
O=C(C1CCCO1)N1CCN(Cc2c(O)ccc3ccccc23)CC1 (stereo not drawn) 44.7 µM [inhibitor, single point]
Cc1c(CN2CCCC(C)C2)c(O)n(CCO)c(=O)c1C#N (stereo not drawn) 35.5 µM [inhibitor, partial curve]
Cc1[nH]nc(SCC(=O)N2CCC(C)CC2)c1[N+](=O)[O-] 28.2 µM [inhibitor, partial curve]
Cc1cccc(Nc2n[nH]c(C)c2[N+](=O)[O-])c1 22.4 µM [inhibitor, partial curve]
CCCc1ncc(C(O)c2ccccc2OC)n1C (stereo not drawn) 39.8 µM [inhibitor, partial curve]
COc1cccc(CNC(=O)c2ccc(CS(=O)(=O)Cc3ccccc3C)o2)c1 25.1 µM [inhibitor, single point]
Cc1cc(C)cc(OCc2ccc(C(=O)N3N=C(C(F)F)CC3(O)C(F)F)o2)c1 (stereo not drawn) 31.6 µM [inhibitor, partial curve]
CC(=O)c1cccc(CN2CCCC(C(=O)Nc3ccc(-c4ccco4)cc3)C2)c1 (stereo not drawn) 12.6 µM [inhibitor, partial curve]
CC(C)OP(=O)(c1ccc(N(C)C)cc1)C(Nc1ccccc1)c1ccccc1 (stereo not drawn) 35.5 µM [inhibitor, partial curve]
CCC(C)NC(=O)c1n[nH]c(=O)c2ccccc12 (stereo not drawn) 44.7 µM [inhibitor, single point]
O=C(Nc1ccc(CN2CCOCC2)cc1)c1ccc(N2CCCC2)c([N+](=O)[O-])c1 35.5 µM [inhibitor, partial curve]
COc1cccc(-c2cc(C(=O)Nc3c(C)nn(Cc4ccccc4C)c3C)no2)c1 3.55 µM [inhibitor, full curve, poor fit]

Activity change, negative = displacement, inactive:
CC(C)NC(=O)N1CCN(S(=O)(=O)c2ccc3c(ccn3C)c2)CC1 -9.42%
CC(C)(C)c1ccc(/C=C2\Oc3cc(OC(=O)N4CCOCC4)ccc3C2=O)cc1 0.746%
CC(=O)OC1CC[C@]2(C)C(CC(OC(C)=O)[C@]3(C)C2CC[C@@]2(C)C(c4ccoc4)OC(=O)C4O[C@]432)C1(C)C (stereo partly drawn) -0.76%
COc1ccc(C(=O)NCc2cccnc2)cc1Br -15.1%
O=C(N/N=C/c1cccnc1)c1cc(-c2ccccc2)nc2ccccc12 0.913%
